Results taken from the supplement of paper PMC11417369.
± gives the standard deviation of the averaged measurements. The list shows a part of the results.

tested on: PfAP2-I AP2 domain 3 (GST-tagged); experiment: gcPBM binding intensity (ln(normalized median fluorescence intensity)); higher = stronger DNA binding
In short: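 DNA-binding domains from P. falciparum, fused to GST and produced in E. coli, were put on an Agilent 4 × 180k double-stranded probe array for 1 h in 1× PBS holding 1% milk, 0.2 mg/ml BSA, 0.5% salmon testes DNA and 0.03% Triton X-100. Probes were primer-extended, 36 bp long and drawn from intergenic genomic regions, with negative controls included. After Alexa488 anti-GST antibody detection and a 488 nm scan, binding intensity was set as the highest Masliner-normalised natural-log median intensity across replicate spots of either probe orientation.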

Row | Sequence | gcPBM binding intensity (ln)
1 | TACGTGAAGTTATATACACACATAAATATGTCTGTA [CACACA_site7463] | 7.45 ± 0.54
2 | TTAAAGTATAACTGTACATGCGAGTAAAAGAATGAC [TGCATGCA_site899] | 8.39 ± 0.69
3 | TATGTTTTTCGGTATGCATGCATATGCTTAATAATA [TGCATGCA_site184] | 7.97 ± 0.65
4 | AATATTAAACAAATGAAAAAAAAATATATATTATAT [CACACA_negctrl_site742] | 7.7 ± 0.59
5 | TTTAATTAAAATATATGTACATATATATATATATAT [XGTACX_site4517] | 9.28 ± 0.042
6 | AATATATATATGATTATATATATATATATATATATA [GTGCAC_negctrl_site290] | 9.12 ± 0.54
7 | AAAATAACACAAATGGGTACATATTATATTAAATAA [XGTACX_site7027] | 7.78 ± 0.3
8 | ATATATTCATTTTTATGTACGTAAATTGTAAATTGG [XGTACX_site8242] | 8.16 ± 0.099
9 | AAAATAATAATAAAAAGTACATGTGTATATAATAAA [XGTACX_site754] | 8.11 ± 0.51
10 | TGCATTATTTTATGAAGTACATATGAACAAAAAATT [XGTACX_site2185] | 8.25 ± 0.34
11 | AAATTATCCAAAAATTGTACTTAAAACAACATAAAA [XGTACX_site6238] | 7.62 ± 0.39
12 | AAAGAAGGTAAACACACACACACACCGACAAAAAAA [CACACA_site9255] | 7.92 ± 0.45
13 | ACCATTTGTAGGTAAACACACATTATTCTTAATATC [CACACA_site5453] | 7.78 ± 0.61
14 | TTTCTCTTATTCCAATCTATAATAAGTATCAATATT [CACACA_negctrl_site179] | 7.7 ± 0.6
15 | AATATATGGTTTCATGATATAAAATTCAATTTAATG [GTGCAC_negctrl_site610] | 7.4 ± 0.47
16 | TATATATATATATATGTATGCATGTCCTTTTTTATT [TGCATGCA_site344] | 9.39 ± 0.16
17 | ATTTTTTTTAAACGAAGTACAATTTGTGCATTGGAA [XGTACX_site8109] | 10 ± 0.86
18 | TTTTTTTTTTTTGTAGTGCAAATTAAAAATATATGT | 10.6 ± 0.53
19 | TGTTTATCATATTTGTGTCCTCATTTTTTAGTATCA [XGTACX_site947] | 8.01 ± 0.41
20 | ATTTTTTTTTTTTTTTTTTTTTTTTTTTTTTTATGC [CACACA_negctrl_site1018] | 7.85 ± 0.68
21 | TTATTTCTTCAGAAAAAATTAAAAAATTAAACAATA [CACACA_negctrl_site169] | 7.53 ± 0.5
22 | TGTTTACACTTTTTTTGTACACATAATTTTATTTGA [XGTACX_site3760] | 7.89 ± 0.53
23 | AAAAAAAAAAAAAACACACACATATAACATATTTAA [CACACA_site6745] | 8.19 ± 0.38
24 | TATTCTAGTCTGCTTACACACATATTTATATTTATA [CACACA_site7432] | 8.01 ± 0.71
